The text below walks through data of ChEMBL document CHEMBL4888484, “Replenishing the malaria drug discovery pipeline: Screening and hit evaluation of the MMV Hit Generation Library 1 (HGL1) against asexual blood stage Plasmodium falciparum ,using a nano luciferase reporter read-out” (2022).

Molecules are shown by their SMILES. In all, about 150,000 compounds went through this assay and about 540 (0.36%) showed an effect of 50% or more. This is one part of the list.

This assay has as its system Plasmodium falciparum. In words: Primary screen in NF54 nanoGlo assay, in single point, at 2uM, 72h; a lower Z score goes with more inhibition. Type of assay: functional, Erythrocyte. The settings on record: timepoint 72 hour.
A word on the % Inhibition: it is the drop in the measured response relative to a control, in per cent. For `CNC[C@H]1CCN(C(=O)COc2ccccc2-c2ccccc2)C1`, the “% Inhibition” value turned out to be 9% and the Z score was -1.09.
Turning to `COc1cccc(C(=O)N2CCc3nc(N4CCN(c5ccc(F)cc5)CC4)nc(N(C)C)c3C2)c1`, the “% Inhibition” value is given as -7% and the Z score came to 0.91.
For `CNc1ncc(CN(C)Cc2nc(-c3cccc(Cl)c3)oc2C)cn1` the same measures were 0% and 0.06.
Taken in the same sequence, the figures for `Cc1noc(CCNc2ncc(Cl)cc2F)n1` were -3% and 0.4.
For `CC(C)c1nnc(NC(=O)C2(C(=O)O)CCCCCC2)s1` the same measures were -6% and 0.92.
Regarding `CN(C)c1cccc(S(=O)(=O)N2CCOC[C@H]2C(N)=O)c1`, the “% Inhibition” value was determined as 16% and the Z score was -1.72.
On to `O=C1CO[C@H]2CN(Cc3cccnc3)C[C@H]2N1Cc1cccc(C(F)(F)F)c1`, for which the “% Inhibition” value is recorded as -1% and the Z score is 0.07.
For `COc1cccc(C(=O)NC2CCCN(C(=O)OC(C)(C)C)C2C)n1` (stereo not drawn), the “% Inhibition” value was -11% and the Z score was 0.99.
Consider `CC(NC(=O)NCc1nnc2ccccn12)C1CCCO1` (stereo not drawn), for which the “% Inhibition” value was -11% and the Z score was 1.39.
Consider `CCOC(CCN[C@@H](C)c1cc(OC)ns1)OCC`, for which the “% Inhibition” value was -13% and the Z score worked out at 2.69.
For `CN(C)c1ccc(C(=O)NC2CCCCC2)cc1`, the “% Inhibition” value is -14% and the Z score was 1.22.
With `O=C(Nc1csc(-c2cccc(NC(=O)c3cccc4ccccc34)c2)n1)c1ccccc1`, the “% Inhibition” value is given as -26% and the Z score is recorded as 3.1.
On to `Cc1ccccc1N1C[C@H](Cc2ccccc2)N(C(=O)CO)CC1=O`, for which the “% Inhibition” value is listed as -6% and the Z score is reported as 0.85.
`O=S1(=O)CC(O)C(N(Cc2ccccn2)Cc2ccco2)C1` (stereo not drawn): the “% Inhibition” value is listed as 1% and the Z score is given as -0.12.
Consider `O=c1c(C(F)(F)F)cccn1Cc1nccs1`, for which the “% Inhibition” value was -14% and the Z score came to 3.03.
In the case of `Cc1cccn2c(=O)cc(CN3CC(=O)N(CC4CC4)C3)nc12`, the “% Inhibition” value is reported as -18% and the Z score is on record as 2.3.
Take `O=C1NC(=O)C2(CCN(C(=O)c3ccc4c(c3)CCC4)CC2)N1`: the “% Inhibition” value stood at 11% and the Z score was -1.35.
Taken in the same sequence, the figures for `O=C(c1cn(C2CCCCC2)nn1)N1CCC[C@H](CN2CCCCC2)C1` were 6% and -0.86.
For the compound `O=C(C1CCC(F)(F)CC1)N(CC(F)F)c1cccc(Cl)c1`, the “% Inhibition” value is recorded as -6% and the Z score stood at 0.63.
On to `O=C(c1ccccc1-c1ccccc1F)N1C[C@H](O)[C@@H](F)C1`, for which the “% Inhibition” value is on record as -15% and the Z score was found to be 2.06.
Turning to `O=C(Nc1nc(CC(=O)N2C[C@@H](O)C[C@H]2CO)cs1)c1ccco1`, the “% Inhibition” value is on record as -1% and the Z score is 0.13.
For `O=C1CCC(=O)N1c1ncn(Cc2ccc(F)cc2Cl)n1` the same measures were 5% and -0.58.
Taken in the same sequence, the figures for `C[C@H]1CN(CCCNC(=O)c2cc3[nH]cnc3cc2F)CCCO1` were -3% and 0.29.
For `O=C(Nc1nc2c(s1)CCCC2)c1ccc(-c2ccccc2)cc1` the same measures were -5% and 0.6.
For the compound `Cc1cscc1NC(=O)N1CCO[C@@H](CS(C)(=O)=O)C1`, the “% Inhibition” value is -1% and the Z score was found to be 0.07.
Taken in the same sequence, the figures for `Cc1cc(C(=O)Nc2ccc(N(C)C(C)C)c(F)c2)c(C)n1-c1nccs1` were -15% and 1.87.
In the case of `O=C(c1ccc(F)c2occc12)N1CCC[C@H]1c1ncc[nH]1`, the “% Inhibition” value is reported as -7% and the Z score is 0.91.
With `O=S(=O)(Nc1ccccc1)[C@H]1CCCN(c2ccc3nccnc3n2)C1`, the “% Inhibition” value is on record as -18% and the Z score stood at 1.8.
For `FC(F)(F)c1ccc(CN2CC[C@H](c3nc4ncccc4[nH]3)C2)cc1` the same measures were 25% and -2.8.
Taken in the same sequence, the figures for `CN(CC1COc2ccccc2O1)C(=O)C1COCCN1CC(F)(F)F` (stereo not drawn) were -5% and 0.63.
`CCc1nnc(CNC(=O)Nc2nc3c(s2)CCCC3)o1`: the “% Inhibition” value is -11% and the Z score is 1.92.
For `c1ccc2c(NC3CCCCCC3)ncnc2c1`, the “% Inhibition” value is recorded as -7% and the Z score was found to be 0.76.
Take `Cc1nccn1CC(=O)Nc1ccc(N2CCCCC2)cn1`: the “% Inhibition” value is given as 0% and the Z score was -0.05.
Taken in the same sequence, the figures for `CN1C(=O)COC12CCN(C(=O)[C@H]1C[C@@H]1c1cccc(Br)c1)CC2` were -4% and 0.73.
Consider `Cc1ccc2ncccc2c1CN1CCN(CCO)[C@@H]2CS(=O)(=O)C[C@@H]21`, for which the “% Inhibition” value was 6% and the Z score is listed as -1.01.
For `S=c1cc(-c2ccccc2)n(Cc2ccco2)c2c1CCCC2` the same measures were 54% and -6.88.
With `CCO[C@@H](CNC(=O)c1cscn1)c1ccccc1`, the “% Inhibition” value is listed as 3% and the Z score is -0.31.
With `CC(C)n1cc(C(=O)N[C@H]2CCOC[C@@H]2O)cn1`, the “% Inhibition” value is recorded as -18% and the Z score is 1.55.
Consider `Cc1cc(C(=O)N2CCC3(CC2)[C@H](O)C[C@@H]3OCCO)nc(C)n1`, for which the “% Inhibition” value is 3% and the Z score is listed as -0.46.
Turning to `CC(C)(CO)NC(=O)c1ccc(Cl)c(F)c1`, the “% Inhibition” value is listed as -7% and the Z score worked out at 1.11.
As for `O=C(NC1CCN(c2cc3c(nn2)CCCC3)CC1)[C@@H]1CC=CCC1`, the “% Inhibition” value is -9% and the Z score came out at 1.55.
In the case of `COc1ccc(OC)c(-c2cc(C(=O)NCCn3ccc(-c4ccccn4)n3)n(C)n2)c1`, the “% Inhibition” value worked out at 4% and the Z score is on record as -0.54.
With `O=C(Cn1nc2c(Oc3cccc(F)c3)nccn2c1=O)Nc1ccc(Cl)cc1F`, the “% Inhibition” value is -20% and the Z score was determined as 1.93.
With `CCCN1CCN(Cc2ccc(Cl)cc2)[C@H]2CS(=O)(=O)C[C@H]21`, the “% Inhibition” value is -12% and the Z score was 1.48.
With `Cc1ccc2c(c1C)NC(=O)C21NC(Cc2ccc(O)cc2)[C@H]2C(=O)N(CCc3ccccc3)C(=O)[C@H]21` (stereo partly drawn), the “% Inhibition” value is recorded as -11% and the Z score is 0.95.
In the case of `O=C(Nc1ccc2ccccc2c1)c1sc2cccc(Cl)c2c1Cl`, the “% Inhibition” value is -5% and the Z score is 0.7.
In the case of `N#Cc1ccncc1NC1CCC(F)C1` (stereo not drawn), the “% Inhibition” value is given as -11% and the Z score is reported as 2.1.
For `Clc1ccc(OCc2noc(-c3cnccn3)n2)c(Cl)c1`, the “% Inhibition” value is given as -6% and the Z score is recorded as 0.98.
Take `O=C(C1CCCC1)N1C[C@@H]2CN(CCc3ccc(O)cc3)C[C@]2(C(=O)O)C1`: the “% Inhibition” value was -12% and the Z score was 1.12.
Take `C[C@H](NC(=O)C1CC2(CCC2)C1)c1ncnn1C`: the “% Inhibition” value is given as -1% and the Z score is given as 0.11.
With `O=C(N1CCC(n2ccnn2)CC1)C1(Cc2ccccc2)CCC1`, the “% Inhibition” value is listed as -11% and the Z score is recorded as 1.66.
As to `COc1cccc(NC(=O)[C@H](C)OC(=O)C2CCN(C(N)=O)CC2)c1`, the “% Inhibition” value is -14% and the Z score came to 1.28.
`CC(C)C(=O)N1CCn2nc(CNC(=O)N[C@H](C)c3ccccc3)cc2C1`: the “% Inhibition” value is recorded as -6% and the Z score is listed as 0.6.
As to `CC(C#N)(CCc1ccccc1)NC(=O)C1CC2C=CC1C2` (stereo not drawn), the “% Inhibition” value is recorded as 25% and the Z score is recorded as -3.33.
For `CC(NC(=O)N1CCC[C@H]1CN1CCOCC1)c1nc(Cc2ccccc2)no1` (stereo partly drawn) the same measures were 4% and -0.7.
Taken in the same sequence, the figures for `CCc1ccc(-c2cc(C(=O)NCc3ccncc3)c3ccc(Cl)c(C)c3n2)cc1` were -6% and 1.06.
Taken in the same sequence, the figures for `CCn1c(CN2CCN(C3CCN(C(C)C)CC3)[C@@H](CCO)C2)nc2ccccc21` were -11% and 1.3.
On to `Cc1ccccc1CS(=O)(=O)N[C@H](CN)CC(C)C`, for which the “% Inhibition” value worked out at 12% and the Z score is on record as -1.27.
Take `CCCn1nccc1C(=O)N(C)Cc1csc(-c2cccs2)n1`: the “% Inhibition” value is recorded as -2% and the Z score is 0.37.
For `CCC(=O)N1CCO[C@@H](COc2ccc(C)cc2)C1` the same measures were -13% and 1.29.
As for `O=C(Nc1cccc(C(F)(F)F)c1)NC1CCC(CC2CCC(NC(=O)Nc3cccc(C(F)(F)F)c3)CC2)CC1` (stereo not drawn), the “% Inhibition” value is recorded as -10% and the Z score is given as 1.05.
For `Cc1cc(C(=O)NCc2ccco2)ccc1N(C)S(C)(=O)=O` the same measures were -4% and 0.59.
On to `O=C1CN(C(=O)c2ccc(-c3cnn(CC4CC4)c3)cc2)CCN1`, for which the “% Inhibition” value is -17% and the Z score is 2.25.
Taken in the same sequence, the figures for `CCN(CC)CCNC(=O)C1CCN(c2c(NC(C)=O)c(C)nn2-c2ccc(Cl)cc2)CC1` were -1% and 0.25.
With `CO[C@H]1CC[C@H](NC(=O)c2ccc(F)cc2O)CC1`, the “% Inhibition” value is reported as -11% and the Z score was 1.31.
Turning to `Cc1noc(C)c1CCC(=O)N1C[C@H](NS(C)(=O)=O)[C@@H](C(C)C)C1`, the “% Inhibition” value turned out to be 6% and the Z score is given as -0.73.
In the case of `CCn1ncnc1CN1CCN(C)[C@H](c2ccccc2)C1`, the “% Inhibition” value is reported as 16% and the Z score is given as -2.08.
In the case of `COc1ncc(CNC(=O)[C@H]2CCc3cnc(C)n3C2)cc1Cl`, the “% Inhibition” value is on record as -4% and the Z score is reported as 0.84.
Take `CC(C)OCC(=O)Nc1nccs1`: the “% Inhibition” value was -8% and the Z score is 1.18.
`Cc1cc(C)cc(COC(=O)CN2CCS(=O)(=O)CC2)c1`: the “% Inhibition” value is on record as -24% and the Z score is 2.24.
Regarding `O=S(=O)(C1CC1)N1CC2(CCC2)c2ccccc21`, the “% Inhibition” value is reported as -2% and the Z score is given as 0.2.
`N#Cc1sc2ccccc2c1N1CCC(N2CCCNC2=O)CC1`: the “% Inhibition” value was 24% and the Z score is reported as -3.22.
For `CCn1cnnc1CN(C)c1nccc(-c2c(C)nn(-c3ccccc3)c2C)n1`, the “% Inhibition” value is -1% and the Z score amounted to 0.08.
For `Cc1ccccc1CCNCc1c(C(=O)O)c(C)n(-c2ccc(Cl)cc2)c1C` the same measures were -7% and 0.94.
Regarding `COc1ccc(C(=O)N(CC(=O)N2CCCN(c3ccc(-c4ccc(OC)c(OC)c4)nn3)CC2)Cc2ccco2)cc1`, the “% Inhibition” value came to 3% and the Z score is reported as -0.5.
Regarding `COc1ccccc1CCn1c(C)cc(=O)c(C(=O)N[C@@H](C)c2cccs2)c1C`, the “% Inhibition” value stood at 3% and the Z score is on record as -0.39.
As to `O=C(NCC[C@H](O)C1CC1)NC1CCOCC1`, the “% Inhibition” value is on record as -3% and the Z score is recorded as 0.47.
In the case of `c1nc(CN2C[C@@H]3CC[C@H]2C3)n(-c2ccc3c(c2)OCO3)n1`, the “% Inhibition” value is on record as -7% and the Z score was 1.38.
In the case of `CC(C)CC(=O)N(Cc1ccccc1OS(=O)(=O)C(C)C)C(C)C`, the “% Inhibition” value is on record as -2% and the Z score is given as 0.2.
Take `COc1ccc(-c2nc(OC)nn2-c2cccc(NC(=O)c3ccc(C(F)(F)F)cc3)c2)cc1`: the “% Inhibition” value was -7% and the Z score is recorded as 1.05.
Taken in the same sequence, the figures for `COc1ccc(OC)c(C(O)CNC2CCCc3c2cnn3C)c1` (stereo not drawn) were -8% and 0.86.
In the case of `COc1ccc(OC)c2c1cc(C(=O)Nc1ccc(Oc3cccc4[nH]ccc34)nc1)n2C`, the “% Inhibition” value was -2% and the Z score is 0.19.
Turning to `CC1(C)C[C@@](C)(c2ccccc2)c2ccccc2N1C(=O)Cc1ccccc1`, the “% Inhibition” value is given as -3% and the Z score is recorded as 0.37.
For `CN(C)CCOc1cccc2c1c(NC(=O)c1ncn[nH]1)nn2-c1cccc(F)c1` the same measures were 12% and -1.9.
